Measured values published in PubChem BioAssay AID2451 (National Center for Advancing Translational Sciences (NCATS), 2010).
Values joined by “and” are separate entries in the source; they are usually repeats but may differ in a detail not shown here. Equal entries are not always repeated. The whole screen tested about 290,000 compounds, of which about 2,100 (0.72%) were called active. This list was built around the results that the source calls inconclusive (neither active nor inactive); the mix of calls is not that of the screen. Calls come from the whole dose curve; as a rule, active = well fitted inhibition curve with a large enough effect; inconclusive = small, poorly fitted or top-dose-only effect, or effect the other way; inactive = flat fitted curve, though single readings scatter. Potencies beside an inconclusive call are fits to weak or partial responses and may not hold up.

Biological target: Fructose-bisphosphate aldolase (Giardia intestinalis (strain ATCC 50803 / WB clone C6)) (UniProt A8B2U2)
Sequence of UniProt A8B2U2 (A8B2U2 whole entry, looked up): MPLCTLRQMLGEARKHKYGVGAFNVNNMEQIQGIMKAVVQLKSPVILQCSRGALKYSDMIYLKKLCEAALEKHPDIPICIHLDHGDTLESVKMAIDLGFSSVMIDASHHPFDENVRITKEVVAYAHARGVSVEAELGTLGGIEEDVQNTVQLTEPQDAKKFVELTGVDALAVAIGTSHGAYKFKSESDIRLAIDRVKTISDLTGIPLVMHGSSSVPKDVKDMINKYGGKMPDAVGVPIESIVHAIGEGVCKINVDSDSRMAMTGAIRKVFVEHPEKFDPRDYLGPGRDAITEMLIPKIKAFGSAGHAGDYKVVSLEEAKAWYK
Assay: qHTS Assay for Inhibitors of Fructose-1,6-bisphosphate Aldolase from Giardia Lamblia; note: nearly all actives have a fitted effect of over 55% in size
Conditions: purified Giardia FBPA; series mostly up to 59.6 µM
Procedure, shortened: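 40 nM FBPA preincubated 10 min at RT with compound (up to 57.5 uM final), then substrate plus GAPDH/TPI/NAD/arsenate coupling and diaphorase/resazurin added. Fluorescence read after 20 min at RT, 525/598 nm.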
Potency is the fitted concentration of half-maximal effect; tags give direction and shape of the fitted curve.

Structure (SMILES)	Potency
CCOC(=O)c1c(NCc2ccc3c(c2)OCO3)c2ccccc2[nH]c1=O	inactive
CCOC(=O)C1CCCN(Cc2c(Cl)cccc2Cl)C1 (stereo not given)	inconclusive: 17.8 µM [inhibitor, partial curve]
Cc1cc(-c2cccs2)n[nH]1	inactive
Cn1c(CCN2CCCC2)nc2cc(NS(=O)(=O)c3ccccc3)ccc21	inactive
Cn1c2ccccc2c(=O)c2c(=O)n(Cc3ccco3)c(COc3ccccc3)nc21	inconclusive: 12.6 µM [inhibitor, partial curve]
COCCNC(=S)N/N=C(\C)c1cccc(OC)c1	inconclusive: 19.9 µM [inhibitor, single point]
COc1ccc(S(=O)(=O)Nc2nc(C(F)(F)F)cs2)cc1	inconclusive: 19.9 µM [activator, single point]
CCOC(=O)c1cc(-c2ccccc2)sc1NC(=O)C(C)OC(=O)c1cccc(S(=O)(=O)N(C)C)c1 (stereo not given)	inactive
CCOc1cccc(/C(O)=C2/C(=O)C(=O)N(CCN3CCOCC3)C2c2ccncc2)c1 (stereo not given)	inactive
N#C/C(=C(/O)c1ccc(-c2cccc([N+](=O)[O-])c2)o1)c1nc2ccccc2s1	inactive
NC(=O)c1ccc(N=Cc2ccc([N+](=O)[O-])s2)cc1	inconclusive: 19.9 µM [inhibitor, partial curve]
COc1cc2c(cc1OC)-c1cc3ccc(OC)c(OC)c3c[n+]1CC2	inconclusive: 12.6 µM [inhibitor, partial curve] and inconclusive: 17.7 µM [inhibitor, partial curve]
CCOC(=O)N1CCC(NC(=O)CS(=O)(=O)Cc2nc(-c3ccccc3Cl)oc2C)CC1	inactive
O=C(NC(=S)Nc1ccc2cn[nH]c2c1)c1ccccc1	inconclusive: 15.8 µM [inhibitor, single point]
COc1ccc(C(=O)N2CCN(CCCc3ccccc3)CC2)cc1OC	inconclusive: 14.1 µM [inhibitor, partial curve]
CCCS(=O)(=O)c1c(S(=O)(=O)CCC)c2c(N)cccn2c1C(=O)c1ccc(Br)cc1	inconclusive: 14.1 µM [inhibitor, partial curve]
CCCCn1c(NC(=O)c2ccc(Br)o2)c(C(=O)OCC)c2nc3ccccc3nc21	inconclusive: 3.15 µM [inhibitor, full curve]
CC(Oc1ccc(-c2ccccc2)c(F)c1)c1ccn(S(=O)(=O)c2ccc(F)cc2)n1 (stereo not given)	inactive
Cc1ccc(NC(=O)c2nc[nH]c2C(=O)N[C@@H](C)c2ccccc2)cc1	inconclusive: 28.1 µM [inhibitor, single point]
CCN(CC)c1nc(N2CCOCC2)nc2ccccc12	inconclusive: 35.5 µM [inhibitor, partial curve]
O=c1c2ccccc2nnn1-c1ccc(Br)cc1	inactive
O=C(O)CN(CCOCCOCCN(CC(=O)O)CC(=O)O)CC(=O)O	inconclusive: 31.5 µM [inhibitor, single point]
Clc1ccccc1OCCN1CCCCC1	inconclusive: 28.2 µM [inhibitor, single point]
COc1ccc(C(=O)O)nc1C	active: 3.97 µM
COC(=O)C1CCN(C(=O)c2oc3c(Cl)cc(C)cc3c2C)CC1	inactive

Structure (SMILES)	Potency
CCN1CCN(CC(=O)Nc2c(OC)cccc2OC)CC1	active: 12.6 µM
COc1cccc(C2=NO[C@@H]3C(=O)N(c4ccc5c(c4)OCCO5)C(=O)[C@H]23)c1OC	inconclusive: 14.1 µM [inhibitor, partial curve]
CN(Cc1nc2ccccc2c(=O)[nH]1)Cc1nc2ccsc2c(=O)[nH]1	inconclusive: 3.15 µM [inhibitor, full curve]
CCN(CC(=O)Nc1cccc(OC)c1)CC(=O)Nc1ccc(C)cc1Cl	active: 15.8 µM
CN(C)C(=O)CSc1cccc2cccnc12	inactive
Cc1ccc(-c2csc(N/N=C/C=C/c3ccccc3)n2)cc1	inactive
CC(N=Cc1cccc(O)c1O)c1ccccc1 (stereo not given)	inconclusive: 7.92 µM [inhibitor, partial curve]
CC(C)CNC(=S)N(Cc1ccco1)Cc1cc2cc3c(cc2[nH]c1=O)OCCO3	inactive
CCOc1ccc(N=CC2=C(O)CC(c3ccco3)CC2=O)cc1 (stereo not given)	inactive
O=C(NC1CCCCC1)c1ccccc1C(F)(F)F	inactive
O=C(CSc1n[nH]c(-c2ccco2)n1)Nc1ccc(F)cc1	inconclusive: 22.4 µM [inhibitor, partial curve]
COc1ccc(C2C(C(=O)c3sc(C)nc3C)=C(O)C(=O)N2CCCn2ccnc2)cc1OC (stereo not given)	inactive
COc1ccccc1NS(=O)(=O)c1cc(NC(=O)CCC2CCCC2)ccc1N1CCOCC1	inconclusive: 22.3 µM [inhibitor, single point]
CCOC(=O)c1c(C)n(C)c2ccc(O)c(S(=O)(=O)c3ccccc3)c12	inactive
COc1cc(CN2CCCCCC2)cc(OC)c1OC	inconclusive: 17.8 µM [inhibitor, partial curve]
Cc1cc(NCc2ccncc2)ccc1Br	active: 22.3 µM
CCC(C)(C)C1CCC(=NNC(=O)c2ccoc2C)CC1 (stereo not given)	inactive
Cc1cc(C)cc(OCCN2CCOCC2)c1	inconclusive: 28.2 µM [inhibitor, partial curve]
CCn1nnnc1SCC(=O)Nc1ccc2c(c1)OCO2	inactive
COc1ccccc1CCN1CCCC(CN(C)CC(C)(C)CO)C1 (stereo not given)	inactive
Cn1c(NN=O)nc2ccccc21	active: 7.92 µM
CN1CCN/C1=C(/C(Cl)=C(Cl)Cl)[N+](=O)[O-]	inconclusive: 19.9 µM [inhibitor, single point]
Cc1ccc(/C=C2\SC(=S)N(NS(=O)(=O)c3ccc(C)cc3)C2=O)cc1	active: 25.1 µM
O=C(O)C1Cc2ccccc2CN1C(=O)CCl (stereo not given)	inconclusive: 15.8 µM [inhibitor, single point]
N#Cc1ccsc1NC(=O)CN1CCCCC1	inconclusive: 17.7 µM [inhibitor, partial curve]

Structure (SMILES)	Potency
O=C(CNc1cccc2ccccc12)N/N=C/c1cccc(Oc2ccccc2)c1	inconclusive: 28.1 µM [inhibitor, single point]
CCc1c(C)sc(NC(=O)c2noc(C)c2[N+](=O)[O-])c1C#N	inconclusive: 17.7 µM [inhibitor, single point]
COc1ccc(OC)c(S(=O)(=O)N(C)CC(=O)N2CCN(c3ccc(F)cc3)CC2)c1	inconclusive: 6.29 µM [activator, single point]
C=CCOc1ccccc1CN1CCCN(C)CC1	inconclusive: 28.2 µM [inhibitor, partial curve]
COc1cc(C(C)=O)ccc1OCCN1CCC(Cc2ccccc2)CC1	inconclusive: 19.9 µM [inhibitor, partial curve]
COc1ccc(-c2cc(-c3n[nH]c(=S)n3-c3ccccc3OC)[nH]n2)cc1	inactive
O=C(NC1CC1)C1CCN(S(=O)(=O)c2cc(Cl)ccc2Cl)CC1	inconclusive: 19.9 µM [inhibitor, partial curve]
O=S(=O)(O)c1ccc(N=Nc2ccccc2)cc1	inconclusive: 17.7 µM [activator, single point]
COc1ccc(N=C2S/C(=C\c3ccc(OCC(=O)O)cc3)C(=O)N2CCc2c[nH]c3ccccc23)cc1	inconclusive: 19.9 µM [inhibitor, partial curve]
CCCOc1ccc(CNCCCOCC)cc1OC	inconclusive: 19.9 µM [inhibitor, partial curve]
Fc1ccccc1N1CCN(c2cnc3ccccc3n2)CC1	inactive
Cc1ccnn1CCSCC(=O)O	inconclusive: 17.7 µM [inhibitor, single point]
CN1CCc2c(sc3c2C(=O)NC(c2ccccc2)N3)C1 (stereo not given)	inconclusive: 15.8 µM [inhibitor, partial curve]
C=C(C)c1cccc(C(C)(C)NC(=O)Nc2nncs2)c1	inactive
O=C(CSCc1ccc(Cl)cc1)N/N=C/c1ccccc1	active: 17.7 µM
CC(=O)Nc1ccc(N=C(C2=C(O)c3ccccc3C2=O)c2ccccc2)cc1	inactive
O=C(O[C@@H]1Cc2c(O)cc(O)cc2O[C@@H]1c1cc(O)c(O)c(O)c1)c1cc(O)c(O)c(O)c1	inconclusive: 14.1 µM [inhibitor, partial curve]
COc1ccc(C2=NN(C3=NN=C(N)Cc4ncnn43)C(O)(C(F)(F)F)C2)cc1 (stereo not given)	inconclusive: 3.54 µM [inhibitor, partial curve]
Cc1cc(N2C(=O)C(=O)/C(=C(/O)c3ccc(F)cc3)C2c2ccc(Cl)cc2)no1 (stereo not given)	inconclusive: 19.9 µM [activator, single point]
Cc1cccc(N2CCN(C(=O)C3CCN(S(=O)(=O)c4cccc5cccnc45)CC3)CC2C)c1 (stereo not given)	inconclusive: 31.5 µM [inhibitor, single point]
CNc1nc2[nH]c(=O)c3c(c2s1)OC(N)=C(C#N)C3c1ccccc1 (stereo not given)	inconclusive: 22.3 µM [inhibitor, single point]
COc1ccc2oc(=O)c(C(=O)C[n+]3cccc(C)c3)cc2c1	inconclusive: 15.8 µM [inhibitor, partial curve]
COc1ccc(NC(=O)C2CCN(Cc3cnn(-c4ccccc4)c3-n3cccc3)CC2)cc1OC	inconclusive: 35.5 µM [inhibitor, single point]
COCCn1c(N2CCCC2)nc2c1c(=O)[nH]c(=O)n2C	inactive
Cc1cccc(/C=N/NC(=O)NC23CC4CC(CC(C4)C2)C3)n1	inactive
